# Measurements as given in the supplement of paper PMC9446081.
# Among all 39,000 compounds or so, about 220 (0.56%) showed activity. The list shows a part of the results.
# System: Escherichia coli K-12 BW25113
# Experiment: relative growth (OD600 normalised to plate interquartile mean) (fraction); higher = less growth inhibition, active = 0.2 or less
# Details: 50 µM; LB; incubation time: overnight (16-24 h)
# 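Note: static incubation at 37 °C against the wild-type strain, values averaged over two biological replicates.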
row,Structure (SMILES),relative growth
1,CCCC(=O)Nc1ncnc2c1ncn2C1OC2COP(=O)([O-])OC2C1OC(=O)CCC.[Na+] (stereo unspecified),inactive: 0.96
2,C[C@H](CO)N1C[C@H](C)[C@H](CN(C)S(=O)(=O)c2ccccc2)Oc2ccc(NS(=O)(=O)c3cn(C)cn3)cc2C1=O,inactive: 1
3,Nn1c(=S)[nH]c2cc(C(=O)O)ccc2c1=O,inactive: 1.02
4,Cc1noc(C)c1S(=O)(=O)Nc1ccc2c(c1)C(=O)N([C@@H](C)CO)C[C@H](C)[C@@H](CN(C)S(=O)(=O)c1cn(C)cn1)O2,inactive: 0.982
5,CC(C)C(N)C(=O)O (stereo unspecified),inactive: 0.948
6,C[C@H]1CN([C@@H](C)CO)C(=O)c2cccc(NC(=O)c3ccc(-c4nccs4)cc3)c2O[C@H]1CN(C)Cc1ccc(C(F)(F)F)cc1,inactive: 0.966
7,CN1CCN(C(=O)C[C@H]2CC[C@@H]3[C@H](COC[C@@H](O)CN3C(=O)C3CCOCC3)O2)CC1,inactive: 0.977
8,CCOC(=O)CCCCCC(=O)Nc1ccc2c(c1)C(=O)N([C@H](C)CO)C[C@@H](C)[C@@H](CN(C)S(=O)(=O)c1ccc(C)cc1)OCCCC[C@H](C)O2,inactive: 1.06
9,C[C@@H]1CN([C@@H](C)CO)C(=O)c2cc(NC(=O)Nc3ccc(F)cc3)ccc2O[C@@H](C)CCCCO[C@H]1CN(C)Cc1ccc(Cl)c(Cl)c1,inactive: 1.03
10,Cc1ccc(S(=O)(=O)N(C)C[C@H]2Oc3cc(Br)ccc3S(=O)(=O)N([C@H](C)CO)C[C@H]2C)cc1,inactive: 1.02
11,C[C@H]1CN([C@@H](C)CO)C(=O)c2cc(/C=C/c3ccccc3)cnc2O[C@@H]1CN(C)C(=O)CN1CCOCC1,inactive: 0.996
12,Cc1ccc(S(=O)(=O)n2cc([C@H]3CC(=O)N(C(=O)OCc4ccccc4)[C@H]3C(=O)Nc3cccc4cccnc34)c3ccccc32)cc1,inactive: 1.04
13,C[C@@H]1CN([C@H](C)CO)C(=O)c2cc(NS(=O)(=O)c3cn(C)cn3)ccc2O[C@@H]1CN(C)C(=O)Nc1ccc(F)cc1,inactive: 1.01
14,C[C@H](CO)N1C[C@H](C)[C@@H](CN(C)S(=O)(=O)c2ccccc2)OCCCC[C@H](C)Oc2ccc(NC(=O)CCC(F)(F)F)cc2C1=O,inactive: 0.931
15,COc1ccc(CN(C)C[C@H]2OCCCC[C@@H](C)Oc3ccc(NC(=O)Nc4ccc(C(F)(F)F)cc4)cc3C(=O)N([C@@H](C)CO)C[C@H]2C)cc1,inactive: 1
16,C[C@@H]1CCCCO[C@H](CN(C)C(=O)Nc2ccc(C(F)(F)F)cc2)[C@@H](C)CN([C@H](C)CO)C(=O)c2cc(NS(=O)(=O)c3cccs3)ccc2O1,inactive: 1.01
